Marks after values point to notes of the source that are not given here.
How the values were obtained:
Lewis Lung cells = assay: FACS binding to cell surface; conditions: murine CA cell line, 10 μg/ml
Protocol: To determine the binding characteristics of the anti-TWEAKR antibodies on mouse and human cancer cell lines, binding was tested by flow cytometry to a panel of cell lines. Adherent cells were washed twice with PBS without Ca and Mg (Biochrom #L1825: aqueous solution containing 8000 mg/l NaCl, 200 mg/l KCl, 1150 mg/l Na2HPO4, and 200 mg/l KH2PO4) and detached by enzyme-free PBS based cell dissociation buffer (Invitrogen). Cells were suspended at approximately 10^5 cells/well in FACS buffer (PBS without Ca/Mg, containing 3% FCS, Biochrom). Cells were centrifuged (250 g, 5 min, 4° C.) and supernatant discarded. Cells were resuspended in dilutions of the antibodies of interest (10 μg/ml in 80 μl if not indicated otherwise) in FACS buffer, and incubated on ice for 1 h. […] After incubation for 1 h on ice cells were again washed with cold FACS buffer, resuspended in 1000 FACS buffer and analyzed by flow cytometry using a FACS-Array (BD Biosciences). Results are calculated as Geo Mean of fluorescence detected by the antibody of interest subtracted by background fluorescence as measured by detection with the secondary antibody alone. Values are scored according to the following system: Geo Mean−Geo Mean of secondary antibody alone >10: +, >100: ++, >1000: +++, 10000: ++++, close to category border in ( ).

tumor free mice = assay: Cytokines in serum/plasma of tumor free mice (Luminex); assay type: in vivo; conditions: 10 mg/kg
Description: To investigate, whether the observed cytokine secretion is also of relevance in xenograft tumors in mice, human and murine cytokines in serum/plasma from tumor bearing (A375, WiDr) as well as tumor free mice were investigated. 5×10^6 A375 cells in Matrigel/PBS (1:1) or 5×10^6 WiDr cells in Matrigel/Medium (1:1) were subcutaneously inoculated in immunodeficient female NMRI nude mice. Parallel to A375-bearing mice, non-tumor mice were investigated. Treatment started 7d after inoculation with established tumors of about 40 mm^2. […]
Cytokines were quantified using Luminex® bead immunoassays. Human cytokines were determined with Human Cytokine Magnetic 25-plex panel (Invitrogen®, Cat-No. LHC0009M), comprising IL-1β, IL-1RA, IL-2, IL-2R, IL-4, IL-5, IL-6, IL-7, IL-8, IL-10, IL-12 (p40), IL-13, IL-15, IL-17, TNF-α, IFN-α, IFN-γ, GM-CSF, MIP-1α, MIP-1β, IP-10, MIG, Eotaxin, RANTES, and MCP-1). Murine cytokines were determined with Mouse Cytokine Magnetic 20-plex panel (Invitrogen®, Cat-No. LHC0006M) comprising FGF basic, GM-CSF, IFN-γ, IL-1α, IL-1β, IL-2, IL-4, IL-5, IL-6, IL-10, IL-13, IL-12 (p40/p70), IL-17, IP-10, KC, MCP-1, MIG, MIP-1α, TNF-α and VEGF). The assays were conducted according to the manufacturer's instructions and measured by the Luminex reader Bio-Plex 200 (Bio-Rad GmbH). […]

[1] = tested on: 786-O xenograft (renal cell cancer); assay: Xenograft anti-tumor efficacy; assay type: in vivo, mice; conditions: based on measurement of tumor area (*)
Protocol: (§1) Tumor cell lines were cultivated as described in the parts above and 100 μl containing cell line specific numbers of tumor cells inoculated subcutaneously (s.c.) into female athymic nude mice (NMRI nu/nu, 6-8 weeks, 20-25 g, Taconic). Mice were housed under standardized pathogen free conditions and treated according to the animal welfare guidelines.
(§2) After tumor growth to a size of approximately 40 mm^2 mice were randomized into control and treatment groups with a respective group size of n=8-10. Mice were treated with various doses of anti-TWEAKR antibodies diluted in PBS by intravenous injection (i.v.) into the tail vein with a twice per week schedule (q4dx3: applications twice per week, three applications in total; q4dx8: applications twice per week, eight applications in total). Combination therapy partners such as Regorafenib (10 mg/kg daily, per os) and the PI3K-inhibitor 1 (10 mg/kg, BID, 2d on, 5d off (applications twice daily on two consecutive days, followed by five days without treatment), i.v.) were diluted in their respective formulations whereas the standard of care therapies Irinotecan (5 mg/kg, 4d on, 3d off (applications once daily on four consecutive days followed by three days without treatment) i.v.) and Paclitaxel (16 mg/kg, q7dx4 (applications once per week, four applications in total), i.v.) were diluted in 0.9% NaCl. Animals injected with PBS served as the control (vehicle) group. The applied volume of the compounds was 5 ml/kg body weight per mouse.
(§3) Tumor growth was monitored 2-3 times per week by caliper measurement (length×width in mm) as well as body weight (in g). At the end of study tumors were dissected, weighted and used for the calculation of tumor-to-control (T/C) ratios (mean tumor weight of treated animals divided by mean tumor weight of control/vehicle animals). […] 2×10^6 tumor cells in 100% Matrigel were s.c. inoculated in female nude mice. After 7d established tumors with a size of about 40 mm^2 were treated with 0.3 mg/kg, 1 mg/kg and 3 mg/kg of antibodies (i.v., q4dx3: applications twice per week, three applications in total).

[2] = tested on: A253 xenograft (salivary gland cancer); assay: Xenograft anti-tumor efficacy; assay type: in vivo, mice; conditions: based on measurement of tumor area (*)
Protocol: as §1, §2, §3

[3] = tested on: MDA-MB-231 xenograft (breast cancer); assay: Xenograft anti-tumor efficacy; assay type: in vivo, mice; conditions: based on final tumor weight after dissection
Protocol: as §1, §2, §3

[4] = tested on: SK-OV-3 xenograft (ovarian cancer); assay: Xenograft anti-tumor efficacy; assay type: in vivo, mice; conditions: based on measurement of tumor area (*)
Protocol: as §1, §2, §3

[5] = tested on: A375 xenograft (melanoma); assay: Xenograft anti-tumor efficacy; assay type: in vivo, mice; conditions: based on measurement of tumor area (*)
Protocol: as §1
After tumor growth to a size of approximately 40 mm^2 mice were randomized into control and treatment groups with a respective group size of n=8-10. Mice were treated with various doses of anti-TWEAKR antibodies diluted in PBS by intravenous injection (i.v.) into the tail vein with a twice per week schedule (q4dx3: applications twice per week, three applications in total; q4dx8: applications twice per week, eight applications in total). […]
Tumor growth was monitored 2-3 times per week by caliper measurement (length×width in mm) as well as body weight (in g). […]

B1: TPP-1538: anti-TWEAKR human IgG1; heavy chain SEQ ID NO: 62, light chain SEQ ID NO: 61 (antibody, listed as Homo Sapiens)
heavy: EVQLLESGGGLVQPGGSLRLSCAASGFTFSPYPMMWVRQAPGKGLEWVSYISPSGGKTHYADSVKGRFTISRDNSKNTLYLQMNSLRAEDTAVYYCARGGDTYFDYFDYWGQGTLVTVSS[human IgG1 constant region not shown]
light: AQDIQMTQSPATLSASVGDRVTITCRASQSISSYLNWYQQKPGKAPKLLIYAASSLQSGVPSRFSGSGSGTDFTLTISSLQPEDFATYYCQQSYSSPGITFGPGTKVEIKRTVAAPSVFIFPPSDEQLKSGTASVVCLLNNFYPREAKVQWKVDNALQSGNSQESVTEQDSKDSTYSLSSTLTLSKADYEKHKLYACEVTHQGLSSPVTKSFNRGEC
- Binding by scoring of FACS analysis (Lewis Lung cells): + (>10: +)
- human cytokines in plasma of treated tumor free mice (tumor free mice): no increased secretion of human cytokines was detected
- Final T/C [1]: 0.57*
- Final T/C [2]: 0.43*
- Final T/C [3]: 0.91
- Final T/C [4]: 0.55*
- Final T/C [5]: 0.46*
